Values marked as one replicate rest on one cluster of the flow cell; about a third of the high ones do not repeat.
Tested on: ATP
Assay: switch fluorescence ratio, 500 uM ATP over buffer (Cy3 cluster intensity, sum of 5 cycles each) (fold (ratio)); higher = stronger signal-on switching upon ATP binding; sequences stand for … in TCGTCGGCAGCGTCAGATGTGTATAAGAGACAGTTTTTTTTTTTTTTTTTTTTTTTTT…TC
Conditions: aptamer strand: ATP DNA aptamer (quencher-CACCTGGGGGAGTATTGCGGAGGAAGG + anchor), 100 nM annealed; ATP concentration: 500 uM; one replicate
How it was run: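 Switching-strand clusters labelled with Cy3 on a modified Illumina MiSeq flow-cell were annealed to 100 nM quencher-labelled ATP aptamer, imaged in selection buffer, and re-imaged after 15 min with 500 uM ATP at 22 °C. This was done over five cycles with NaOH stripping and re-annealing in between. The fluorescence ratio is summed target-cycle over summed buffer-cycle Cy3 intensity per cluster, averaged per switch-domain sequence, excluding clusters outside 100-1000 RFU.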
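Note: ATP exposure 15 min at 22 °C before imaging.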

| Sequence | switch fluorescence ratio |
| --- | --- |
| TTTGTACAGT | 1.05 |
| TCATGGTAGG | 0.965 |
| CCCGGTCCCT | 1.07 |
| TGGTGGAAGA | 0.991 |
| ACACGCTGGG | 1.01 |
| CGGTTTACCG | 0.951 |
| CTGACGTCTG | 0.966 |
| GCAAAGATGG | 1.01 |
| ATCGACTCTT | 1.01 |
| CGAAAGGTGA | 1.02 |
| TTCAAGCCAC | 1.12 |
| CGGTAAAATG | 1.01 |
| ACTAACACCT | 1.41 |
| GACAAAATAA | 1.04 |
| ACCCGGAAGT | 1.07 |
| AACCGTATCG | 0.904 |
| TCATGCCTCG | 1.09 |
| TACATATGCC | 1.05 |
| TTACAGGGAT | 0.978 |
| CGAAGGAACA | 0.985 |
| GGTGCCGATA | 0.919 |
| CGATATATTC | 1.06 |
| GTGAGCGTAT | 0.982 |
| ATCTTGGACA | 1.01 |
| CCAATCTTGC | 1.14 |
| ACATTGTAAA | 0.987 |

| Sequence | switch fluorescence ratio |
| --- | --- |
| TGCGTAACCG | 1.01 |
| CATTTGCAAT | 1.17 |
| GGATACCC | 0.988 |
| GCAACCTCTG | 1.05 |
| ATGGACGAGG | 0.967 |
| GCGTAAGGCT | 1.05 |
| GGTTGTCTCA | 1.04 |
| GACCGGTTGG | 0.986 |
| CTAAGACGGA | 0.995 |
| AATCATCCGT | 1.02 |
| GGCTCTTTCG | 0.984 |
| GAGGTATTGA | 1.01 |
| CAACAGTTTA | 1.01 |
| TACTCTGGGG | 1.04 |
| CACCAAAAGG | 0.995 |
| GAATATCGGC | 0.982 |
| GGAGGACAC | 1.02 |
| CGGCTTGTTT | 0.958 |
| GAGATTTGT | 1.02 |
| GAGGTTTGAG | 1 |
| ATCACCGATC | 1.03 |
| TGGATTAGAC | 1.01 |
| CTTCATCGGC | 2.32 |
| CCAAGAGGTA | 1.02 |
| GGTCCATGAT | 1.02 |
| ATCCTAGCTC | 1.04 |

| Sequence | switch fluorescence ratio |
| --- | --- |
| ATCTCCTAAG | 1.03 |
| ATCGGTAGCT | 1 |
| CGTCAGGAGG | 1.02 |
| TATTTGTCCC | 1.09 |
| GACTATGTCC | 0.975 |
| CTTTAATGGA | 0.969 |
| CGGTTCTTTT | 0.983 |
| ACTTTTATT | 1.18 |
| TGGTGTTATA | 1.01 |
| TCATATTATA | 1.03 |
| CGGTAATTGT | 1.2 |
| AAGGTCCAG | 0.989 |
| CCGGGGCTT | 1.25 |
| CTTAGTCAG | 0.95 |
| TAGGCAATCG | 1.09 |
| AAAATCGGTA | 1.01 |
| CGACTGTGCG | 1.02 |
| GCATAGTTCC | 1.15 |
| AGTGAAGAGT | 0.977 |
| TGGCTTGTCC | 1.15 |
| CGCATTTCAT | 1.02 |
| TACGAAGTAA | 0.936 |
| TTCATGTATC | 1.02 |
| CCTTTAGGCC | 0.989 |
| GGAGGTGTGG | 1.01 |
| GAAGTTAGTC | 0.989 |

| Sequence | switch fluorescence ratio |
| --- | --- |
| TGATGCAGTG | 1.05 |
| GGGTCCTGAT | 0.993 |
| CCGTACATGG | 2.33 |
| CAGAAGTCTT | 1.01 |
| ATAATTTTG | 0.974 |
| GAGCCAGCCT | 1.04 |
| ATAAACCTCA | 1.18 |
| AGCTCAAAAG | 0.99 |
| TTGAAAATTT | 0.991 |
| GCGTAACTCA | 1.05 |
| GCGACAGCGC | 1.01 |
| AGTCTAGAGT | 1.03 |
| GTAACCCTGC | 1.06 |
| GATTCTATGT | 0.989 |
| TCTAGGTCCT | 1.04 |
| GCTTTTGCGA | 1.01 |
| GACCGTTAGT | 1 |
| CGCGACTGAC | 2.12 |
| TTTACAAGTT | 1.01 |
| TAAACGGGG | 0.983 |
| CCGAGTTTTA | 1.26 |
| GCATGATGTA | 0.972 |
| TAAGCAGAGT | 1 |
| GTTTCCCTTC | 1.01 |
| TATTCTGATG | 0.99 |
| CGTATCCTGG | 0.961 |

| Sequence | switch fluorescence ratio |
| --- | --- |
| AGGTCAGCAA | 2.17 |
| GTAAAAAGAA | 0.97 |
| GGAGTACACC | 1.02 |
| ACCGCGATGG | 4.05 |
| CTGTACATGC | 1.54 |
| ATGTATG | 0.959 |
| TCAAGGGTGT | 1.14 |
| ACTAGACGTC | 1.06 |
| ATTCTGCTTT | 1.02 |
| CTCAGGGAGA | 0.971 |
| ATGGATTCAA | 1.02 |
| ACACAACCCC | 1.22 |
| CGGCGTTGG | 0.984 |
| TGGATGCTTC | 0.996 |
| GGAGTCATT | 0.982 |
| ATGAAATCTC | 0.977 |
| ACTCGGTGT | 1.07 |
| GGCCAACAGA | 0.98 |
| AACCAGTCGC | 1.06 |
| AGTGGCCATT | 0.947 |
| GGTAAGGAGC | 1 |
| GGTCCCCACT | 1.01 |
| CTCCCAACCT | 1.88 |
| TGGCGTTG | 0.961 |
| CTTATAGTAC | 1.07 |
| ACGACGGGGA | 1.07 |

| Sequence | switch fluorescence ratio |
| --- | --- |
| TCGACGGCAC | 3.13 |
| TAAGTCAGGA | 1.01 |
| TGCCCCGGGG | 1.02 |
| ATAATTAG | 0.995 |
| TACACGATC | 0.983 |
| TTACCCTTGC | 1.48 |
| GCATGGTGTT | 1.02 |
| TTGCGTGTAG | 0.97 |
| ACCGGAAGGA | 0.948 |
| CTAAAAGCAT | 1.21 |
| AACTGAAATA | 0.992 |
| AGAAAAGGAC | 0.985 |
| TAGATAGGAG | 1.01 |
| GGTCGAACGG | 0.992 |
| GTTTTAGGTG | 1.12 |
| TTGAGATTC | 0.976 |
| AGGGACAAGC | 1.01 |
| AAATATACAG | 1 |
| TCCGGTTGCT | 1.18 |
| ACTTGGGGCG | 1.05 |
| TGCCACATGA | 0.971 |
| GCACGGGTAT | 1 |
| TGTTTTATGA | 0.921 |
| TGATAGGAGA | 1.04 |

— the supplement of paper PMC10126150
